Measured values taken from PubChem BioAssay AID624296 (National Center for Advancing Translational Sciences (NCATS), 2012).
Hit rate of the full screen: of about 350,000 compounds, about 9,900 (2.8%) were called active. This list was built around the results that the source calls inconclusive (neither active nor inactive); the mix of calls is not that of the screen. Calls come from the whole dose curve; as a rule, active = well fitted activation curve with a large enough effect; inconclusive = small, poorly fitted or top-dose-only effect; inactive = no such curve, though single readings can be large or run the other way. Potencies of inconclusive entries are left out as doubtful fits.

test: A quantitative high throughput screen for small molecules that induce DNA re-replication in MCF 10a normal breast cells.; note: nearly all actives have a fitted effect of over 50% in size; for activity, positive = re-replication: % of control where 0% means no effect; conditions: MCF 10A DNA re-replication, Hoechst nuclear intensity, 48 h; activity, positive = re-replication: at 46.1 µM (top of the series)
Potency is the fitted concentration of half-maximal effect; tags give direction and shape of the fitted curve.

Row | Compound | Potency | activity, positive = re-replication
1 | COc1ccccc1NC1=C(NC(C)=O)C(=O)c2ccccc2C1=O | inconclusive [activator, single point] | 
2 | COC(=O)c1ccc(NCN2C(=O)C3C4CCC(C4)C3C2=O)cc1 (configuration not stated) |  | inactive: -10.1%
3 | CCOC(=O)CN(C)C(=O)CCc1nnc(-c2ccsc2)o1 |  | inactive: -1.21%
4 | Cc1ccc(/C=N/NC(=O)c2ccc3ccccc3c2)s1 | active: 4.61 µM | 
5 | Cc1ccc(S(=O)(=O)N2CCN(C(=O)COC(=O)/C=C/c3ccc(OC(F)F)cc3)CC2)cc1 |  | inactive: 25.1%
6 | C=CCOc1ccc(CN(C)Cc2nc3cc(C(F)(F)F)ccc3c(=O)[nH]2)cc1 |  | inactive: 1.71%
7 | O=C(N/N=C/c1cc([N+](=O)[O-])cc([N+](=O)[O-])c1O)/C(=C\c1cccs1)NC(=O)c1ccccc1 |  | inactive: 2.48%
8 | COc1cccc(NC(=S)NNC(=O)c2c([N+](=O)[O-])c(C)nn2C)c1 |  | inactive: 14.5%
9 | Cc1c(C)n(C)c2ccc(C(=O)NCCN3CCOCC3)cc12 | inconclusive [activator, single point] | 
10 | COCCNc1nc2sc3c(c2c(=O)n1Cc1ccco1)CCCCC3 | active: 8.2 µM | 
11 | O=C(c1ccccc1)C1CN(c2ccccc2)CC1c1ccc(Cl)cc1 (configuration not stated) |  | inactive: 1.02%
12 | CCN1CCCC1CNC(=O)C1CCN(C(=O)c2cc3sccc3n2Cc2ccc(F)cc2)CC1 (configuration not stated) | inconclusive [activator, partial curve, poor fit] | 
13 | CCOc1ccc(NC(=O)NNC(=O)c2cc3ccccc3cc2O)cc1 |  | inactive: -1.55%
14 | Cc1ccccc1OCCC(=O)Nc1ccc(F)c(Cl)c1 |  | inactive: 3%
15 | CCN(CC)CCNc1nc(-c2ccc(OC)cc2)c(-c2ccc(OC)cc2)s1 |  | inactive: 13.7%
16 | CC(C)(C)c1cc(NCCCn2ccnc2)n2ncc(-c3ccccc3)c2n1 | inconclusive [activator, single point] | 
17 | COc1cccc(-c2nn(-c3ccccc3)cc2/C=C\C(=O)c2cccs2)c1 | inconclusive [activator, single point] | 
18 | c1csc(CNc2nc(-c3cccs3)nc3ccccc23)c1 | inconclusive [activator, single point] | 
19 | CCOC(=O)c1cc(-c2ccc3c(c2)OCCO3)nc2c1c(C)nn2CCC#N | active: 11.6 µM | 

Row | Compound | Potency | activity, positive = re-replication
20 | C#CCOc1ccc(Cl)cc1/C=N/O | inconclusive [activator, single point] | 
21 | CN(C(=O)COc1ccc(Cl)cc1Cl)c1nnc(C23CC4CC(CC(C4)C2)C3)s1 | inconclusive [activator, full curve, poor fit] | 
22 | CCOC(=O)C1=C(c2ccc(OC)cc2)C(=O)c2ccccc2C1=O | active: 2.91 µM | 
23 | COc1ccc(OC)c(CCNC(=O)C(C)n2nc(C)c3c(C)n(-c4ccc(C)cc4)nc3c2=O)c1 (configuration not stated) |  | inactive: 3.23%
24 | CSc1ccccc1NC(=O)Nc1cccc2ccccc12 |  | inactive: 29%
25 | O=C(C=Cc1ccccc1)c1cc(Br)ccc1O | inconclusive [activator, single point] | 
26 | CCn1c(=O)[nH]c2cc(C(=O)Nc3cc(C)cc(C)c3)ccc2c1=O | inconclusive [activator, partial curve, poor fit] | 
27 | CN(C)CCCn1cnc2c(c1=N)C(c1ccccc1)c1ccc3ccccc3c1O2 (configuration not stated) | active: 18.4 µM | 
28 | Cc1cccc(CSCCNC(=O)CN2C(=O)c3ccccc3S2(=O)=O)c1 | inconclusive [activator, single point] | 
29 | COc1cccc(CNc2ccc3c(c2)ncn3C)c1OC | inconclusive [activator, partial curve, poor fit] | 
30 | COc1ccccc1CCN1CCCC(CN(C)Cc2ccc(OCCO)cc2)C1 (configuration not stated) | active: 20.6 µM | 
31 | CCCCNC(=O)CNC(=S)N(Cc1ccccc1)Cc1cccs1 |  | inactive: 0.538%
32 | Cc1cc(NC(=O)COC(=O)c2oc3c(ccc4ccccc43)c2C)no1 | inconclusive [activator, single point] | 
33 | C/C(CCC12CC3CC(CC(C3)C1)C2)=N\NC(N)=S | inconclusive [activator, full curve] | 
34 | CC1(C)C2CCC1(C)C1(C2)NC(=O)c2ccccc2O1 (configuration not stated) | inconclusive [activator, single point] | 
35 | CC1(c2nnc(-c3ccc(F)cc3)o2)CC(c2c(Cl)cccc2Cl)=NO1 (configuration not stated) | inconclusive [activator, single point] | 
36 | CCSc1ccc(-c2nn(-c3ccccc3)cc2/C=C(/C#N)C(=O)NC)cc1 | inconclusive [activator, partial curve, poor fit] | 
37 | O=C(N/N=C/c1ccc(Br)s1)c1cccc([N+](=O)[O-])c1 | inconclusive [activator, full curve, poor fit] | 
